Measurements as given in PubChem BioAssay AID924 (National Center for Advancing Translational Sciences (NCATS), 2007).
The whole screen tested about 130,000 compounds, of which about 1,200 (0.92%) were called active. The inconclusive results got no clear call from the source; some entries with a clear call stand among them for comparison. Calls come from the whole dose curve; as a rule, active = well fitted cell-killing curve with a large enough effect; inconclusive = small, poorly fitted or top-dose-only effect; inactive = no such curve, though single readings can be large or run the other way. Potencies of inconclusive entries are doubtful fits and often do not repeat.

test: qHTS Screen for Compounds that Selectively Target Cancer Cells with p53 Mutations: Cytotoxicity of p53ts Cells at the Permissive Temperature; details: H1299-p53A138V at 32C, ATP luminescence viability, 24 h; activity change, negative = cytotoxicity: at 46.1 µM (top of the series); note: nearly all actives have a fitted effect of over 55% in size;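 for activity change, negative = cytotoxicity: 0% = DMSO and -100% = full killing by reference compound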
How it was run: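 Viability by ATPlite luminescence after 24 h compound treatment (up to 46 uM) at the permissive 32C. Cells are H1299 carrying p53 A138V. Scale runs from DMSO basal to 100 uM tamoxifen as full kill; AC50 from Hill fits.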
Potency is the fitted concentration of half-maximal effect; tags give direction and shape of the fitted curve.

Structure (SMILES) | Potency | activity change, negative = cytotoxicity
Cc1ccc2scc(N3CCN(c4cccc(C(F)(F)F)c4)CC3)c(=O)c2c1 | inactive | –
O=C(O)[C@H](Cc1cc(I)c(O)c(I)c1)C1CCCCC1 | – | inactive: 3.45% [at 9.22 µM]
CCc1ccc(NC(=O)c2ccc3c(O)c(S(=O)(=O)c4ccccc4)c(=O)[nH]c3c2)cc1 | inconclusive: 12.6 µM [cytotoxic, partial curve] | –
Cc1cc(-c2ccc(N=Nc3cc(S(=O)(=O)O)c4ccccc4c3N)c(C)c2)ccc1N=Nc1cc(S(=O)(=O)O)c2ccccc2c1N | – | inactive: 8.48% [at 1.84 µM]
COc1ccccc1Nc1c2c(nc3ccc(NC(=O)/C=C/c4cc(OC)c(OC)c(OC)c4)cc13)CCCC2 | inconclusive: 15.8 µM [cytotoxic, single point] | –
COc1cccc(C(=O)Nc2ccc3nc(N4CCN(c5ncccn5)CC4)cc(C)c3c2)c1OC | inconclusive: 1.58 µM [cytotoxic, full curve] | –
O=C1CC(=O)N(Cc2ccco2)C(=O)N1 | inactive | –
Cc1ccc(NC(=O)CSc2nc3nc(C)cc(C)c3c(=O)[nH]2)cc1 | inactive | –
CC1CCN(c2ccc(-c3cccc(NS(=O)(=O)c4cccs4)c3)nn2)CC1 | active: 10 µM | –
Cn1nc(-c2ccc(OCC(=O)Nc3ccc(Cl)cc3)cc2)c2ccccc2c1=O | inconclusive: 31.6 µM [cytotoxic, single point] | –
Cc1ccc(CN2C(=O)C(=O)c3cc(Br)cc(C)c32)cc1 | inconclusive: 31.6 µM [cytotoxic, single point] | –
O=C(Nc1ccc(Cl)c(Cl)c1)c1ccc(Cn2cc(Cl)cn2)cc1 | inconclusive: 22.4 µM [cytotoxic, single point] | –
COc1cccc(-c2cc(N(C)Cc3ccco3)ncn2)c1 | inconclusive: 12.6 µM [cytotoxic, partial curve] | –
COc1cccc(CNC(=O)C2CCN(Cc3cc4ccccc4n3Cc3ccc(C)cc3)CC2)c1 | inactive | –
COc1ccc2oc(=O)c(C(=O)Nc3cccc(C(=O)O)c3)cc2c1 | active: 7.94 µM | –
CCOc1ccc(-c2cc(C(=O)NCCCN3CCN(CC)CC3)c3ccccc3n2)cc1 | active: 12.6 µM | –
Cc1cccc(-n2ncc3c(N4CCCC4)ncnc32)c1 | active: 3.16 µM | –
NCCNS(=O)(=O)c1ccc(N)cc1 | – | inactive: -1.1% [at 9.22 µM]
O=C1C=C(NCCO)C(=O)c2cnccc21 | active: 3.16 µM | –
O=C(Cn1cnc2onc(-c3ccc(F)cc3)c2c1=O)Nc1cccc(C(F)(F)F)c1 | inconclusive: 15.8 µM [cytotoxic, single point] | –
Cc1cccc(-c2nc(CN3CCCC(C(=O)NCc4ccc(Cl)cc4)C3)c(C)o2)c1 (stereo not drawn) | inconclusive: 20 µM [cytotoxic, single point] | –
COc1cccc2[nH]c(-c3ccccn3)nc12 | inconclusive: 2 µM [cytotoxic, partial curve] | –
Cc1cc(C)cc(NC(=O)c2oc3ccc4c(c3c2C)C(=O)CC(C)(C)O4)c1 | inconclusive: 3.16 µM [cytotoxic, full curve] | –

Structure (SMILES) | Potency | activity change, negative = cytotoxicity
CCNc1nc(C)c2cc(Br)c(=O)n(CC)c2n1 | inactive | –
COc1ccccc1NC(=O)c1c(C)cc(C)nc1SCC(=O)Nc1ccc(C)c(C)c1 | inconclusive: 3.98 µM [cytotoxic, full curve, poor fit] | –
CCOc1ccc(C2CC(=O)NC(NC(=O)c3cccc(Cl)c3)=N2)cc1 (stereo not drawn) | inactive | –
CCc1cccc2nc3c(c([Si](CC)(CC)CC)c12)Cn1c-3cccc1=O | inconclusive: 31.6 µM [cytotoxic, single point] | –
COc1ccc(/C=N/NC(=O)c2[nH]c(C)c(C(=O)N/N=C/c3ccc(OC)cc3)c2C)cc1 | inconclusive: 0.0631 µM [cytotoxic, full curve, poor fit] | –
CN1/C(=C\C(=O)c2cccs2)Sc2ccccc21 | active: 10 µM | –
CCN(CC)CCCC(C)n1c(-c2ccccc2)nc2c(NC3CCCCC3)nc(C)nc21 (stereo not drawn) | inconclusive: 31.6 µM [cytotoxic, single point] | –
Cc1cc(NC(=O)CCS(=O)(=O)c2nc(-c3ccccc3)cc(C(F)(F)F)n2)no1 | inconclusive: 31.6 µM [cytotoxic, single point] | –
CCOC(=O)C1CCCN(c2c(C(=O)c3ccc(OCC)cc3)cnc3ccccc23)C1 (stereo not drawn) | inconclusive: 31.6 µM [cytotoxic, single point] | –
c1ccc(Nc2nc(-c3ccncc3)cs2)nc1 | inconclusive: 10 µM [cytotoxic, partial curve] | –
COc1ccccc1N=c1oc2cc(O)ccc2cc1C(N)=O | inconclusive: 5.01 µM [cytotoxic, partial curve] | –
Cc1ccc2nc(-c3ccc(SCC(=O)Nc4cc(C)on4)nc3)[nH]c2c1 | inconclusive: 10 µM [cytotoxic, partial curve] | –
Fc1ccc(-c2nc3n(n2)Cc2ccccc2-3)cc1 | active: 15.8 µM | –
COc1cc(OC)cc(C(=O)N2CCN(C(=O)COc3ccc(C)cc3)CC2)c1 | inconclusive: 25.1 µM [cytotoxic, single point] | –
COc1ccccc1C(=O)Nc1nc2ccc(S(C)(=O)=O)cc2s1 | inactive | –
O=S(=O)(c1cccc(Cl)c1)n1c(/C=C/c2ccccc2Cl)nc2ccccc21 | active: 1.26 µM | –
S=C(Nc1ccc(Oc2ccccc2)cc1)NC1CCCCCC1 | inconclusive: 35.5 µM [cytotoxic, single point] | –
CC(C)Oc1ccc(C(=O)Nc2nnc3n2CCS3)cc1 | inconclusive: 2.82 µM [cytotoxic, partial curve, poor fit] | –
FC(F)(F)c1cccc(Nc2nc3nonc3nc2Nc2ccc(Cl)cc2)c1 | inconclusive: 6.31 µM [cytotoxic, partial curve] | –
O=C(CC(c1ccccc1)C1CCCCC1=O)c1ccco1 (stereo not drawn) | inconclusive: 0.891 µM [cytotoxic, partial curve, poor fit] | –
O=C(CCCCCn1c(=O)[nH]c2ccccc2c1=O)N1CCN(c2cccc(C(F)(F)F)c2)CC1 | inconclusive: 14.1 µM [cytotoxic, single point] | –
Nc1ccc2nc(-c3ccc(N)c(Cl)c3)[nH]c2c1 | inconclusive: 8.91 µM [cytotoxic, partial curve] | –
COc1ccc(-c2coc3cc(O)cc(O)c3c2=O)cc1 | inconclusive: 12.6 µM [cytotoxic, partial curve] | –

Structure (SMILES) | Potency | activity change, negative = cytotoxicity
Cc1cc(C)c2c(NC(=O)c3ccccc3Cl)c(C(=O)NCc3ccc(Cl)cc3)sc2n1 | inconclusive: 31.6 µM [cytotoxic, single point] | –
O=C(NCCc1ccccc1)c1ccc2c(c1)nc1n2CCOC1 | active: 12.6 µM | –
Cc1ccc2cc3cc(C(=O)N(C)C4CCCCC4)oc3nc2c1 | inconclusive: 2 µM [cytotoxic, partial curve, poor fit] | –
Cc1ccc(S(=O)(=O)Nc2cc(Cl)c3oc4c(c3c2)CCCC4)cc1 | inconclusive: 1.26 µM [cytotoxic, partial curve] | –
C=CCNc1ncnc2c1cnn2-c1ccc(Cl)cc1 | inconclusive: 10 µM [cytotoxic, partial curve] | –
Cc1ccccc1Nc1c(-c2ccc(N3CCOCC3)cc2)nc2cccc(C)n12 | inconclusive: 2.51 µM [cytotoxic, full curve, poor fit] | –
O=C(Nc1ccc(NC(=O)C2CC2)cn1)c1ccccc1Cl | inconclusive: 7.94 µM [cytotoxic, partial curve] | –
O=C(CCS(=O)(=O)c1ccc(Br)s1)Nc1cc(C(F)(F)F)cc(C(F)(F)F)c1 | inconclusive: 25.1 µM [cytotoxic, single point] | –
Cc1ccc(-c2csc3ncnc(Sc4nnc(CN5CCCCCC5=O)o4)c23)cc1 | active: 25.1 µM | –
COc1ccccc1S(=O)(=O)Cc1ccc(C(=O)N2CCN(c3cc(Cl)ccc3C)CC2)o1 | inconclusive: 35.5 µM [cytotoxic, single point] | –
CCOc1ccc(NC(=O)CSc2c3c(nc4ccccc24)CCCC3)cc1 | active: 22.4 µM | –
CCOc1ccccc1N1CC(c2nc3ccccc3n2CCCOc2ccc(OC)cc2)CC1=O (stereo not drawn) | inconclusive: 12.6 µM [cytotoxic, single point] | –
Cn1c(-c2nc(-c3ccccc3)cs2)nc2ccccc21 | inconclusive: 12.6 µM [cytotoxic, partial curve] | –
Cc1sc(NC(=O)CSc2nc(N)n(CC(=O)c3ccccc3)n2)c(C#N)c1C | inactive | –
CCOC(=O)C1CCCN(C(=O)c2cc(-c3ccc(C)cc3)on2)C1 (stereo not drawn) | inconclusive: 15.8 µM [cytotoxic, single point] | –
O=C(CN1CCCC1)Nc1ccc(Oc2ccc(NC(=O)CN3CCCC3)cc2)cc1 | inactive | –
CC(C)CNC(=O)NC1C(NC(=O)NCC(C)C)N(C)C(=O)N1C (stereo not drawn) | active: 5.01 µM | –
Cc1csc2nc(-c3cccc(NC(=O)c4ccccc4F)c3)cn12 | inconclusive: 10 µM [cytotoxic, partial curve] | –
COc1cc(-c2nc3cnccn3c2Nc2ccc(C(C)C)cc2)ccc1O | inconclusive: 31.6 µM [cytotoxic, single point] | –
CN1CCc2cc(NC(=O)Nc3cccnc3)ccc21 | inconclusive: 12.6 µM [cytotoxic, partial curve] | –
Cc1cccc(C(=O)Nc2sc3c(c2C(=O)O)CCCC3)c1 | inconclusive: 12.6 µM [cytotoxic, partial curve] | –
Cc1cccc(-c2noc(-c3cc(-c4ccc(F)cc4)n[nH]3)n2)c1 | inactive | –
